About 1,200 (2.5%) of roughly 48,000 compounds were called active. Inconclusive results (about 2%) are left out.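 Rule for the calls: active = activation of at least 60% and not above a set upper limit (about 1 call in 100 departs from these limits); inconclusive = activation of 40% to 60%, or above that upper limit; inactive = activation under 40%.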 Some of the results follow.

Here are results for 83 compounds from PubChem BioAssay AID1346428 (National Center for Advancing Translational Sciences (NCATS), 2018).

Sequence of UniProt O75388 (O75388 whole entry, looked up): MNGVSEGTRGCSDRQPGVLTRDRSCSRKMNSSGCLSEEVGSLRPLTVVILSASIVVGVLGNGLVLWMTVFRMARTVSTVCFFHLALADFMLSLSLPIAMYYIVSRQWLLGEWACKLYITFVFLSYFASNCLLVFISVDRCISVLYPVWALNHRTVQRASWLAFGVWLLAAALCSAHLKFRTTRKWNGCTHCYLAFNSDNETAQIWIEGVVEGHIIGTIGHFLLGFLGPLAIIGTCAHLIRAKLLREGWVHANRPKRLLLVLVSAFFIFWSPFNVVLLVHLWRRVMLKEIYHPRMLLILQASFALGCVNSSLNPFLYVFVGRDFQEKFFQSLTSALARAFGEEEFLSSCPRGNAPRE

The target of the assay is Probable G-protein coupled receptor 32 (Homo sapiens) (UniProt O75388). The assay is described as follows: qHTS for Agonists of Human Resolvin D1 Receptor DRV1. Note: 0% is about no effect. As to conditions: CHO-K1 GPR32 beta-arrestin PathHunter luminescence, 90 min; at 76.9 µM; active compounds read high; zero percent set by DMSO-only wells. The method, boiled down:
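Readings come from a cell-based beta-arrestin complementation format: CHO-K1 GPR32 stable cells (2,500/well) treated 90 min with compounds, then beta-Gal substrate added for 1 h before chemiluminescence imaging.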
For orientation: Quantitative high-throughput screening tests each substance at several concentrations.
Regarding `CCN1C(=O)c2ccccc2S(=O)c2ccc(C(=O)NCc3ccc(OC)cc3)cc21` (stereo not drawn), the activation is inactive: -14.7%.

Turning to `O=C(NCc1ccccc1Cl)c1ccc2c(c1)NC(=O)C(CS(=O)(=O)Cc1ccc(F)cc1Cl)N2` (stereo not drawn), the activation was inactive: -25.1%.

For the compound `Cc1oc(-c2cccc(Cl)c2)nc1CSc1nncn2c1cc1occc12`, the activation was inactive: -9.17%.

Take `O=C(NCCc1ccc(Cl)cc1)c1cnc2sc(N3CCOCC3)nn2c1=O`: the activation is inactive: 16.5%.

In the case of `COc1cc(OC)c(Nc2nc3ccccc3c3nncn23)cc1Cl`, the activation is inactive: 7.34%.

With `CN(C)c1ccc(CN(Cc2ccco2)C(=O)c2ccc(C(C)(C)C)cc2)cc1`, the activation was inactive: -18%.

Regarding `Cc1ccc(-c2nc3nc(C)cc(N4CCN(c5cccc(C)c5C)CC4)n3n2)cc1`, the activation was inactive: -5.35%.

For `CCOc1ccccc1NC(=O)NCc1ccc2c(c1)CCN2C(=O)c1ccccc1`, the activation is inactive: -21.6%.

Turning to `COc1ccc(/C=C\c2onc(C)c2S(=O)(=O)N2CCC(C(=O)Nc3ccc(F)cc3F)CC2)cc1`, the activation was inactive: -19.8%.

As for `CCOC(=O)c1c(C)oc2nc(C)nc(Nc3ccc(C)c(Cl)c3)c12`, the activation was inactive: 1.45%.

As for `CCOC(=O)c1c(NC(=O)c2cc(C(C)C)on2)sc(C(C)=O)c1C`, the activation is inactive: 1.41%.

Consider `CCc1ccc(CNC(=O)c2cc(=O)[nH]c3ccc(S(=O)(=O)N4CCCCC4)cc23)cc1`, for which the activation is inactive: -3.03%.

As to `COc1ccc(CC(=O)Nc2ccc3nc(Nc4ccc(OC)cc4)cc(C)c3c2)cc1`, the activation is inactive: 12.1%.

Regarding `CCCOc1ccc(C(=O)Nc2ccc3oc(-c4ccncc4)nc3c2)cc1`, the activation is inactive: -3.26%.

Consider `O=C(Nc1nnc(N2CCCCCC2)s1)Nc1cc(F)ccc1F`, for which the activation is inactive: 1.57%.

For the compound `CCCCN(CC)CCCNC(=O)CS(=O)(=O)Cc1nc(-c2ccc(C)cc2)oc1C`, the activation was inactive: 3.2%.

Turning to `CCOc1ccc(CCNC(=O)C2CCN(C(=O)N3CC(CC)Oc4ccccc43)CC2)cc1` (stereo not drawn), the activation is inactive: -19.4%.

Regarding `Cc1ccccc1-c1noc(-c2ccc(N3CCCCC3)c([N+](=O)[O-])c2)n1`, the activation is inactive: -6.01%.

As for `COc1cc(NC(=O)CSc2nnc(C)n3c2cc2oc(C)cc23)cc(OC)c1`, the activation was inactive: -7.32%.

In the case of `COc1ccc(NC(c2nnc(-c3ccccc3)o2)c2ccccc2F)cc1Cl` (stereo not drawn), the activation was inactive: -7.53%.

Turning to `CCOCCCN(Cc1ccco1)S(=O)(=O)c1cc2c(cc1Cl)NC(=O)CO2`, the activation is inactive: -14.5%.

Regarding `Cc1c2cnn(CC(=O)NCc3ccc(F)cc3)c(=O)c2c(C)n1Cc1cccc(Cl)c1`, the activation is inactive: -4.03%.

On to `O=C(NCc1ccc(Cl)cc1)c1cnc2sc(N3CCOCC3)nn2c1=O`, for which the activation was inactive: 25.5%.

In the case of `COCCCNC(=O)c1c(NC(=O)Cc2coc3c(C)c(C)ccc23)sc2c1CCCC2`, the activation is inactive: -8.53%.

For the compound `COc1cccc(CNC(=O)CCS(=O)(=O)c2ccc3c(c2)oc(=O)n3C)c1`, the activation was inactive: -2.01%.

Regarding `Cn1nnc2c(N3CCN(c4cccc(Cl)c4)CC3)ncnc21`, the activation was inactive: -4.92%.

As to `COCCN(Cc1cccs1)S(=O)(=O)c1cc(-c2cc(C)no2)ccc1C`, the activation was inactive: -12.1%.

For `CCC(Sc1nnc2c(n1)[nH]c1ccccc12)C(=O)Nc1nnc(C(C)C)s1` (stereo not drawn), the activation was inactive: -9.22%.

As for `CCCCOC(=O)c1c(N)n(-c2ccc(OC)cc2OC)c2nc3ccccc3nc12`, the activation is inactive: -17%.

Turning to `Cc1ccc(CCNS(=O)(=O)c2cc(-c3cc(C)no3)ccc2C)cc1`, the activation was inactive: -10.3%.

Take `O=Nc1c(-c2c(O)[nH]c3ccccc23)[nH]c2ccccc12`: the activation is inactive: -33.8%.

As for `Cc1ccc(C(=O)c2cc(O)c(O)c([N+](=O)[O-])c2)cc1`, the activation was inactive: -62.4%.

Regarding `Cc1cccc(-n2ncc(C(=O)N3CCOCC3)c2C2CCN(C(=O)OC(C)(C)C)CC2)c1`, the activation was inactive: -4.61%.

In the case of `CC(C)N(C(=O)Cn1cc(SCC(=O)Nc2ccccc2F)c2ccccc21)C(C)C`, the activation is inactive: -6.34%.

For the compound `CCOc1ccc(C(=O)NCc2ccc3c(c2)CCN3C(=O)c2ccc(Cl)cc2)cc1`, the activation was inactive: -9.55%.

Regarding `O=C(NC1CC(=O)N(c2cccc(F)c2)C1)c1cccs1` (stereo not drawn), the activation was inactive: 0.106%.

Consider `Cc1ccccc1Nc1cc(C(=O)NCCCN2CCN(c3cccc(Cl)c3)CC2)c2ccccc2n1`, for which the activation is inactive: -3.16%.

Consider `Cc1c(Cl)cccc1NC(=O)N1CCN(C(=O)c2nsc3ccccc23)CC1`, for which the activation was inactive: -9.37%.

Regarding `CCc1ccc(OCC(=O)NC(Cc2c[nH]c3ccccc23)C(=O)O)cc1` (stereo not drawn), the activation is inactive: 6.86%.

Regarding `CC(C)C(=O)Nc1ccc2nc(SCC(=O)N3CCCC3)sc2c1`, the activation is inactive: -7.35%.

For the compound `CCCN(C(=O)c1cc2c(=O)oc3ccccc3c2s1)c1ccc(CC)cc1`, the activation is inactive: 5.88%.

Take `Cc1c(CCC(=O)NCCc2ccccc2)c(=O)oc2c(C)c(O)ccc12`: the activation was inactive: 0.118%.

With `CCc1ccc(NC(=O)c2ccc(CN3CC(=O)N4CCCCC4C3=O)cc2)cc1` (stereo not drawn), the activation is inactive: -17.8%.

For `Cc1ccc(C(C)C)c(OCCSc2nc(-c3ccccc3F)nc3cc(=O)[nH]n23)c1`, the activation is inactive: -31.6%.

As for `COc1cccc(C(=O)NCc2ccc3c(c2)CCN3C(=O)c2ccncc2)c1`, the activation was inactive: -6.92%.

For the compound `COc1ccc(-n2c3c(c(=O)[nH]c2=O)C(NC(=O)c2ccccc2Cl)(C(F)(F)F)C(=O)N3)cc1` (stereo not drawn), the activation is inactive: -8.07%.

`COc1cccc(CNC(=O)Cn2c(=O)ccc3cc(S(=O)(=O)N4CCC(C)CC4)ccc32)c1`: the activation is inactive: 9.67%.

As to `COc1ccc(-c2[nH]c(-c3cccc(OC)c3)nc2SCC(=O)Nc2ccc3c(c2)OCO3)cc1`, the activation is inactive: -32.4%.

For the compound `COc1ccc(CNc2nc(SCc3ccc(Cl)cc3)nc3ccccc23)cc1`, the activation is inactive: -12.5%.

`O=C(Nc1ccc(C(=O)N2CCN(c3cccc(Cl)c3)CC2)cc1)c1nsc2ccccc12`: the activation was inactive: -9.86%.

Consider `CCCCCN1C(C(=O)c2ccccc2)=C(NC(=O)c2ccc(OC)cc2)c2ccccc2S1(=O)=O`, for which the activation was inactive: 24%.

On to `COc1ccc(-c2c3c(=O)n(C)c(=O)n(C)c3c3n2-c2ccccc2NC3c2ccc(OC)cc2)cc1` (stereo not drawn), for which the activation was inactive: -11%.

As to `Cc1ccc(NC(=O)c2cc(S(=O)(=O)N(C)C3CCCCC3)ccc2F)cc1C`, the activation was inactive: -12.7%.

Take `COc1ccccc1C(=O)Oc1c(Sc2ccccc2)c(C)nn1C(C)(C)C`: the activation is inactive: -8.25%.

Regarding `CCN(c1cccc(C)c1)S(=O)(=O)c1ccc(N2CCCCS2(=O)=O)cc1`, the activation is inactive: 26.5%.

For `COc1ccc(NC(=O)c2ccc(-c3nc(CSc4ccc(C)cc4)c(C)o3)cc2)cc1Cl`, the activation was inactive: -4.2%.

For `CCc1nnc(NC(=O)c2nc(S(=O)(=O)Cc3ccc(C)cc3)ncc2Cl)s1`, the activation is inactive: 4.11%.

On to `Cc1cc(C)c(NC(=O)C(C)n2c(=O)c(C(F)(F)F)nc3ccccc32)c(C)c1` (stereo not drawn), for which the activation is inactive: 8.23%.

In the case of `CCC(=O)N1CCc2cc(S(=O)(=O)NC(C(=O)NCCc3ccccc3)C(C)C)ccc21` (stereo not drawn), the activation was inactive: -1.77%.

As to `Cc1cccc(-n2ncc(C(=O)N3CCN(C4CCCCC4)CC3)c2C2CCN(C(=O)OC(C)(C)C)CC2)c1`, the activation is inactive: -22.3%.

For the compound `COc1ccc(OC)c2sc(NC(=O)c3ccc(S(=O)(=O)N4CCCC4)cc3)nc12`, the activation was inactive: -19%.

As to `Cc1cc(C)cc(OCC(=O)Nc2nc3c(s2)CC(C(C)(C)C)CC3)c1` (stereo not drawn), the activation is inactive: 0.69%.

For the compound `CCOC(=O)CC(NC(=O)CCc1c(C)nc2c(c(C)nn2-c2ccc(C)c(C)c2)c1C)c1ccc(C)cc1` (stereo not drawn), the activation was inactive: -3.65%.

For `Cc1cc(C)c(S(=O)(=O)Nc2ccc(-c3ccc(N4CCC(C)CC4)nn3)cc2)cc1C`, the activation was inactive: -7.68%.

For the compound `Cc1cccc(C)c1Nc1c(-c2ccccc2F)nc2cccc(C)n12`, the activation is inactive: -35.3%.

With `COc1ccc(OCC(=O)Nc2nnc(S(=O)(=O)N3CCc4ccccc43)s2)cc1`, the activation is inactive: 31%.

With `CCCCN(CC)CCNC(=O)c1c(C)oc2ncnc(N3CCOCC3)c12`, the activation is inactive: -5.56%.

On to `CCOc1ccc(C(=O)/C=C/c2cn(CC(O)CN3CCCCCC3)c3ccccc23)cc1` (stereo not drawn), for which the activation was inactive: 10.9%.

For the compound `CCOC(=O)c1ccccc1NC(=O)C1CCN(c2ncnc3c2nc2n3CCCCC2)CC1`, the activation is inactive: -17.7%.

Consider `Cc1ccccc1C(=O)Nc1cc2c(cc1N1CCOCC1)n(C)c(=O)n2C`, for which the activation is inactive: 5.48%.

`Cc1ccc2oc3c(c(=O)c2c1)C(c1ccc(O)cc1)N(Cc1ccc2c(c1)OCO2)C3=O` (stereo not drawn): the activation is inactive: -16.6%.

`CCOc1ccc(C(=O)c2cn(CC(=O)Nc3ccc(OC)cc3)c3cc4c(cc3c2=O)OCCO4)cc1`: the activation is inactive: 1.9%.

For the compound `CCC1(C)CC(=O)c2c(ccc3oc(C(=O)NCc4ccccc4)c(C)c23)O1` (stereo not drawn), the activation is inactive: -20.1%.

On to `COc1ccc2[nH]c(=O)c(CN(C(=O)c3cccc(Cl)c3)c3ccccc3C)cc2c1`, for which the activation is inactive: -3.92%.

As for `COc1ccc2occ(CC(=O)Nc3ccc(S(=O)(=O)Nc4nccc(C)n4)cc3)c2c1`, the activation was inactive: -7.84%.

For the compound `Cc1ccc(CNC(=O)c2sc3nc[nH]c(=O)c3c2C)cc1`, the activation was inactive: -5.51%.

On to `CC1CN(c2ccc(Cl)cc2)c2nc3c(c(=O)n(CC(=O)O)c(=O)n3C)n2C1` (stereo not drawn), for which the activation was inactive: -5.17%.

For the compound `CN1C2CCCC1CC(NC(=O)c1nn(C)c3ccccc13)C2` (stereo not drawn), the activation was inactive: -3.93%.

`Cc1cc2nnc(SCc3ccc(F)cc3)n2c2ccccc12`: the activation is inactive: 14.1%.

For the compound `CC(C)CCn1c(=O)c2cccnc2n(CC(=O)Nc2ccc(F)cc2)c1=O`, the activation is inactive: -1.2%.

With `COc1cccc(-c2cc(C(=O)Nc3c(C)nn(Cc4ccccc4Cl)c3C)no2)c1`, the activation is inactive: -8.65%.

Consider `C#CCn1c(C2CC(=O)N(c3ccc(OC)cc3)C2)nc2ccccc21` (stereo not drawn), for which the activation is inactive: -1.98%.

Turning to `CN1CCN(C2(CNC(=O)c3ccc(C(C)(C)C)cc3)CCCCC2)CC1`, the activation was inactive: -4%.
